The structures appear in SMILES notation. In all, about 310,000 compounds went through this assay and about 14,000 (4.5%) showed an effect of 50% or more. Effects have a minus sign here. Some of the results follow.
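Note: peak tail current of the secondary pulse compared with the same well before compound.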

The target in the assay is human ether-à-go-go-related gene (hERG) potassium channel (human, UniProt Q12809). Briefly: primary screen, population patch clamp on CHO cells stably expressing hERG.
human ether-à-go-go-related gene (hERG) potassium channel, sequence (Q12809 whole entry, looked up): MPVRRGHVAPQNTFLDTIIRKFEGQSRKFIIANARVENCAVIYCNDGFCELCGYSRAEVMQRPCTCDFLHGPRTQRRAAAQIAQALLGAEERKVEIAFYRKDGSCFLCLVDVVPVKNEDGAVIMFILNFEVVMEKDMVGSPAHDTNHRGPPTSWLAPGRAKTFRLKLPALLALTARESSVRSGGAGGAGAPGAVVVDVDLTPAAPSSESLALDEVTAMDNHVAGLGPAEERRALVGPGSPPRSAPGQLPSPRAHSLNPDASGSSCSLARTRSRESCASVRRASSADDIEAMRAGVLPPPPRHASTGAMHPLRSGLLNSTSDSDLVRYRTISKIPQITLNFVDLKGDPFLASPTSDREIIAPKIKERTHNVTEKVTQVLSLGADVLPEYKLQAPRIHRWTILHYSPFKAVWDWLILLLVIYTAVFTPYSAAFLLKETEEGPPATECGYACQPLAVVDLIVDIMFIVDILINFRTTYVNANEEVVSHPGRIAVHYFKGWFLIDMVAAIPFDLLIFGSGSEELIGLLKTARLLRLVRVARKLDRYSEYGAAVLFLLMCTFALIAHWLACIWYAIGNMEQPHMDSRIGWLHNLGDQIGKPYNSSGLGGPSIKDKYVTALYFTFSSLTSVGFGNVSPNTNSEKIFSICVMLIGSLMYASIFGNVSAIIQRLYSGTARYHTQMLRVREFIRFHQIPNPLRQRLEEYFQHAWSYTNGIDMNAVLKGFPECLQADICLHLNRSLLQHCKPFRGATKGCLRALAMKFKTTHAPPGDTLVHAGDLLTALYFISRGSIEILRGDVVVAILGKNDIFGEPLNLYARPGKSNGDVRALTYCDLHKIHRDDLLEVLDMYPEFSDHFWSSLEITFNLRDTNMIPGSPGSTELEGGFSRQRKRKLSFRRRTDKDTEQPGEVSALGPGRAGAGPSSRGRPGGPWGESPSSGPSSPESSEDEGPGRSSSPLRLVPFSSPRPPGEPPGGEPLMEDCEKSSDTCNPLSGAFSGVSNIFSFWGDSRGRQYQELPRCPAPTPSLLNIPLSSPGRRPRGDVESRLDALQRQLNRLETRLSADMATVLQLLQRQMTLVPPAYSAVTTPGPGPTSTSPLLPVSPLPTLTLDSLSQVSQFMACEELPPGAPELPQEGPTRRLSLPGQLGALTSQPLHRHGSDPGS
Regarding `COc1ccc(C(=O)Nc2ccc(OCc3ccccc3)cc2)cc1[N+](=O)[O-]`, the “hERG current change (%, negative = inhibition) at 10uM” value is recorded as 8.97%. Regarding `O=C(CNC(=S)N(Cc1ccccc1)Cc1ccccc1F)NCCc1ccccc1`, the “hERG current change (%, negative = inhibition) at 10uM” value came to 3.73%.

For the compound `COc1ccc(N2CC(C)Cn3c2nc2c3c(=O)[nH]c(=O)n2C)cc1` (centres unmarked), the “hERG current change (%, negative = inhibition) at 10uM” value is -24.3%. Regarding `CCOC(=O)COc1nc(OC)nc(N2CCOCC2)n1`, the “hERG current change (%, negative = inhibition) at 10uM” value turned out to be 5.73%.

With `CC12CC(c3ccccc3O1)N(C(=O)c1ccco1)C(=S)N2c1ccc(F)cc1` (centres unmarked), the “hERG current change (%, negative = inhibition) at 10uM” value is listed as -10.1%. On to `CCCN1CNC(=S)N(Cc2ccccc2)C1`, for which the “hERG current change (%, negative = inhibition) at 10uM” value is 12.2%. The value for `O=C(COC(=O)/C=C/c1ccccc1Cl)NCCc1ccc(Cl)cc1Cl` was 7.19%. The value for `CCN(C(=O)COC(=O)c1cc(S(=O)(=O)N2CCOCC2)c(Cl)cc1Cl)C1CCS(=O)(=O)C1` (centres unmarked) was 9.86%; that for `CCOc1ccc(N2C(=O)CN=C2Nc2ccccc2F)cc1` was 5.08%.

Take `CC(=O)n1c(C=Nc2ccc(Cl)cc2)c(O)c2ccccc21`: the “hERG current change (%, negative = inhibition) at 10uM” value is -6.28%.

As to `Cc1cc(-c2nnc(SCC(=O)Nc3nccs3)o2)no1`, the “hERG current change (%, negative = inhibition) at 10uM” value is listed as 21.6%. Next, `CCn1c2ccccc2c2cc(NC(=O)COc3ccccc3OC)ccc21`: 6.08%. As to `O=C(NCc1ccc2c(c1)OCO2)C(=O)Nc1ccccc1`, the “hERG current change (%, negative = inhibition) at 10uM” value was -20.5%. Regarding `CCOC(=O)C1(CC2CCCCO2)CCN(S(=O)(=O)c2ccc(OC)cc2)CC1` (centres unmarked), the “hERG current change (%, negative = inhibition) at 10uM” value is recorded as -38.3%. `COc1ccccc1C(=O)C1CCCN(Cc2cccc3nccnc23)C1` (centres unmarked): the “hERG current change (%, negative = inhibition) at 10uM” value is recorded as -67.4%. For `CC(/C=N/NC(=O)c1cc(-c2cccnc2)nc2c1c(C)nn2-c1ccccc1)=C\c1ccccc1`, the “hERG current change (%, negative = inhibition) at 10uM” value is reported as -6.53%. Take `COc1cc(CCC(=O)Nc2c(C(=O)N3CCN(c4ccccc4)CC3)oc3ccccc23)on1`: the “hERG current change (%, negative = inhibition) at 10uM” value is on record as -37.2%.

In the case of `Cc1ccc(C(=O)Nc2cccc(NC(=O)CN3CCCCC3)c2)cc1`, the “hERG current change (%, negative = inhibition) at 10uM” value is reported as -47.3%. As for `COC(=O)c1ccc(COC(=O)CNC(=O)c2cccc(OC)c2)o1`, the “hERG current change (%, negative = inhibition) at 10uM” value is on record as -0.602%. With `COc1ccccc1NC(=O)Nc1nc2ccc(S(N)(=O)=O)cc2s1`, the “hERG current change (%, negative = inhibition) at 10uM” value turned out to be 22.4%. Next, `CCOC(=O)c1cc(-c2ccccc2)n(CCC(=O)N2CCN(c3ccc(OC)cc3)CC2)c1C`: -25.5%.

Consider `O=C(NC(=S)Nc1ccc(Cl)cc1)c1cncc(Br)c1`, for which the “hERG current change (%, negative = inhibition) at 10uM” value turned out to be 0.877%. For `CC(C)C(C(=O)NCc1ccccc1)N(CC1CCCO1)C(=O)CNS(=O)(=O)c1ccccc1` (centres unmarked), the “hERG current change (%, negative = inhibition) at 10uM” value is on record as 8.75%.

As for `Cc1ccc(S(=O)(=O)NCC(=O)NCC(=O)OCc2c(F)cccc2Cl)cc1`, the “hERG current change (%, negative = inhibition) at 10uM” value was 4.12%. Next, `CC(CC(=O)O)CC(=O)Nc1cc([N+](=O)[O-])ccc1O` (centres unmarked): -2.89%; `CC(=O)NCc1ccc2[nH]c(C)cc2c1`: 22.3%; `O=[N+]([O-])c1ccc(NNC(=S)Nc2ccc(F)cc2)cc1`: -15.6%. `COc1ccc(C(CNC(=O)c2ccc(-n3cnnn3)cc2)N2CCOCC2)cc1` (centres unmarked): the “hERG current change (%, negative = inhibition) at 10uM” value is reported as -16.2%. As for `CCOc1ccc(Nc2nc(NCC(=O)O)nc(N)c2[N+](=O)[O-])cc1`, the “hERG current change (%, negative = inhibition) at 10uM” value turned out to be 6.75%. In the case of `CSc1ccc(Cl)c(C(=O)OCC(=O)N2CCNC2=O)c1`, the “hERG current change (%, negative = inhibition) at 10uM” value is on record as -1.88%. For the compound `CCN(CC)CCCNCC(=O)Nc1ccc2c(c1)CCC2`, the “hERG current change (%, negative = inhibition) at 10uM” value is recorded as -12%.

As to `C#CCOCCOCCOCCNc1nc(N2CCN(C(=O)[C@H](Cc3ccc(O)cc3)n3cc([C@@H](N)C(C)CC)nn3)CC2)nc(N2CCN(C(=O)[C@H](CCCCN)n3cc([C@@H](N)CO)nn3)CC2)n1.Cl` (some centres unmarked), the “hERG current change (%, negative = inhibition) at 10uM” value came to 11.6%. The value for `COCCN(Cc1cc2cc3c(cc2n2nnnc12)OCO3)C(=O)c1ccccc1F` was -9.79%; that for `COc1ccc(NC(=O)CSc2ccccc2)c([N+](=O)[O-])c1` was -29%. As for `O=C(COC(=O)c1cccc(S(=O)(=O)NCc2ccccc2)c1)c1ccc2c(c1)OCCO2`, the “hERG current change (%, negative = inhibition) at 10uM” value stood at 11.7%.

On to `O=S(=O)(c1ccc(Br)s1)N1CCN(c2ncccn2)CC1`, for which the “hERG current change (%, negative = inhibition) at 10uM” value is given as -3.42%. Take `CCOC(=O)c1c(C)n(C)c2c(C)cc(O)c(OC(=O)CC)c12`: the “hERG current change (%, negative = inhibition) at 10uM” value came out at 7.65%. Next, `COc1ccccc1NC(=O)CSc1nnc(C2CCCCC2)o1`: -2.31%. The value for `Cc1ccc(NC(=O)c2nc[nH]c2C(=O)NCC(=O)OC(C)(C)C)cc1` was -4.82%; that for `CNCc1ccccc1OCC(=O)Nc1ccccc1` was 14.7%; that for `COCCN(C(=O)COC(=O)C1CC1)c1c(N)n(Cc2ccccc2)c(=O)[nH]c1=O` was -8.45%.

With `CC1(C)CC[C@]2(C(=O)O)CC[C@]3(C)C(=CCC4[C@@]5(C)CC[C@H](O)C(C)(C)C5[C@H](O)C[C@]43C)[C@@H]2C1` (some centres unmarked), the “hERG current change (%, negative = inhibition) at 10uM” value amounted to 5.67%. The value for `Cc1ccsc1/C=N/Nc1nc2ccccc2s1` was -14.7%; that for `O=C1COc2ccc(C(=O)CSc3nnc(NCc4ccccc4)s3)cc2N1` was -9.48%. The value for `CCCCCc1cc(=O)oc2c(C(CCN3CCCCC3)c3cc(OC)c(OC)c(OC)c3)c(OC)cc(OC)c12` (centres unmarked) was -74.6%; that for `CCOC(=O)c1ccc(NC(=O)c2ccc(CN3CCc4ccccc4C3)cc2)cc1` was 13.3%; that for `O=C(CCc1n[nH]c(=O)[nH]c1=O)N/N=C/c1ccco1` was 21%. Next, `Cc1nn(-c2ccccc2)c2nc(C(Cl)(Cl)Cl)[nH]c(=O)c12`: 17%. Turning to `O=C(Cn1nc(Cc2cccnc2)c2ccccc2c1=O)NCCCN1CCCC1=O`, the “hERG current change (%, negative = inhibition) at 10uM” value is -7.52%. As to `COc1ccc(CCN(/C=C2\Sc3ccccc3C2=O)C(C)=O)cc1OC`, the “hERG current change (%, negative = inhibition) at 10uM” value was found to be 6.92%.

Turning to `c1ccc(-c2cc(N3CCCCC3)nc(-c3ccccc3)n2)cc1`, the “hERG current change (%, negative = inhibition) at 10uM” value came out at 6.55%. Next, `O=C(CSc1nc2ccccc2n1-c1ccccc1)Nc1ncc(Cl)cc1Cl`: 12.1%; `CCOc1ccc2ccccc2c1/C=N/NC(=O)c1c(C)cc(C)[nH]c1=O`: 0.637%. For the compound `O=c1c2ccccc2nnn1CSc1nnc(-c2cccc(S(=O)(=O)N3CCCCC3)c2)o1`, the “hERG current change (%, negative = inhibition) at 10uM” value is -13.2%. Take `CC(C)CC(NC(=O)CCCNC(=O)CCC(=O)OC1O[C@H]2OC3(C)CC[C@H]4[C@H](C)CCC(C1C)C24OO3)C(=O)O` (some centres unmarked): the “hERG current change (%, negative = inhibition) at 10uM” value worked out at 1.34%. Next, `COc1ccc(NC(=O)CN(C)C(=O)c2cc(-c3cccs3)nn2-c2ccccc2)cc1`: -2.86%. With `O=C(O)COc1ccccc1/C=N/NC(=O)CSc1nnc(SCc2ccccc2)s1`, the “hERG current change (%, negative = inhibition) at 10uM” value is 5.64%. In the case of `Cc1c(NC(=O)C(C)OC(=O)c2ccc([N+](=O)[O-])s2)c(=O)n(-c2ccccc2)n1C` (centres unmarked), the “hERG current change (%, negative = inhibition) at 10uM” value is recorded as -10.5%. The value for `Cn1c(Cc2cccs2)nnc1SCC(=O)N1CCCc2ccccc21` was -3.34%; that for `CNC(=S)NC1(C)CCS(=O)(=O)C1` (centres unmarked) was 10.2%; that for `COc1ccc(C)c2sc(NC(=O)CCS(=O)(=O)c3ccccc3)nc12` was 10.6%. The value for `Cc1ccc(S(=O)(=O)n2nc(-c3ccco3)nc2N)cc1` was -0.275%; that for `Cn1cc(CN2CCC(C(O)c3cccs3)CC2)c(-c2ccccc2F)n1` (centres unmarked) was -21.5%.

Regarding `CN1CCN(CC(O)COc2ccc(Cl)cc2)CC1.Cl` (centres unmarked), the “hERG current change (%, negative = inhibition) at 10uM” value is recorded as -12.5%. Turning to `CSc1nc2ccc(S(=O)(=O)N(C)C)cc2s1`, the “hERG current change (%, negative = inhibition) at 10uM” value was -3.62%. Turning to `O=C(CCc1nc2ccccc2c(=O)[nH]1)OCc1cccc(C(F)(F)F)c1`, the “hERG current change (%, negative = inhibition) at 10uM” value is listed as 3.57%. The value for `CC(C)(C)c1ccc(C(=O)NC(=S)Nc2ccc(N3CCOCC3)cc2)cc1` was 1.93%; that for `Cc1c(/C=N/NC(=O)c2ccc(O)cc2)c2ccccn2c1C(=O)c1ccc(F)cc1` was 16.7%.

With `COc1ccccc1N1CCN(CCCNC(=O)Nc2ccccc2)CC1`, the “hERG current change (%, negative = inhibition) at 10uM” value is on record as -59.8%. The value for `O=C(CCCN1C(=O)/C(=C\c2ccccc2)SC1=S)Nc1cccc(C(=O)O)c1` was 3.27%; that for `NC(=O)C1CCN(C(=O)NC(=O)c2ccccc2)CC1` was 2.45%.

Consider `CCOC(=O)CN1C(=O)N[C@@H](CCc2ccccc2)C(C(=O)OC)=C1C`, for which the “hERG current change (%, negative = inhibition) at 10uM” value is -3.41%.

Take `COc1cccc(CN(C)C(=O)c2ccc(S(=O)(=O)N3CCCC3)cc2)c1OC`: the “hERG current change (%, negative = inhibition) at 10uM” value was -17.7%. For the compound `CN1CCN(CCCN(Cc2cccs2)C(=S)Nc2ccc(Cl)cc2)CC1`, the “hERG current change (%, negative = inhibition) at 10uM” value is recorded as -71.8%. On to `COc1ccc([N+](=O)[O-])cc1NC(=O)CC(C)c1ccccc1` (centres unmarked), for which the “hERG current change (%, negative = inhibition) at 10uM” value is reported as -26.7%. Next, `CCOc1ccc(NC(=O)NNC(=O)c2ccc(CC)s2)cc1`: 23.3%. The value for `Cc1cc(C)cc(N(C(C)C(=O)NCc2ccc3c(c2)OCO3)S(C)(=O)=O)c1` (centres unmarked) was 4.95%; that for `CC1(C)C2([N+](=O)[O-])CN3CC1([N+](=O)[O-])CN(C2)C3c1ccccn1` (centres unmarked) was 18.1%. Next, `Cc1ccc2nc(-c3ccccn3)cc(C(=O)Nc3ccc(S(=O)(=O)N4CCOCC4)cc3)c2c1`: 21.7%. For the compound `O=C(NC1=NCCS1)c1cccc2ccccc12`, the “hERG current change (%, negative = inhibition) at 10uM” value came to 2.39%.

`O=C(CC(=O)c1ccccc1O)c1ccc(F)cc1`: the “hERG current change (%, negative = inhibition) at 10uM” value amounted to 8.24%. Take `CN1C[C@@H]2C(c3ccc(Cl)nc3)C3(c4cccnc4)CC2(C3)[C@H]1c1ccccc1` (some centres unmarked): the “hERG current change (%, negative = inhibition) at 10uM” value is -36.9%. On to `CS(=O)(=O)c1ccc(NC(=O)C2CC(=O)N(c3ccc4c(c3)OCCO4)C2)cc1` (centres unmarked), for which the “hERG current change (%, negative = inhibition) at 10uM” value is on record as 7.21%.
